The supplement of paper PMC4166925
± gives the standard deviation of the averaged measurements. In all, about 33,000 sequences were measured (“E-score (dimensionless, -0.5 to 0.5)”: median about -0.046, highest 2% from about 0.36 on). Some of the results follow.

test system: T1, SpTbr T-box DNA-binding domain (GST fusion); assay: PBM E-score of 8-mer (E-score (dimensionless, -0.5 to 0.5)); Tbr is Tbrain of the sea star Patiria miniata (Pm) or the sea urchin Strongylocentrotus purpuratus (Sp); higher = stronger binding preference; most listed sequences are background and not binding sites; settings: the construct has about 5 more residues each side
T1 sequence: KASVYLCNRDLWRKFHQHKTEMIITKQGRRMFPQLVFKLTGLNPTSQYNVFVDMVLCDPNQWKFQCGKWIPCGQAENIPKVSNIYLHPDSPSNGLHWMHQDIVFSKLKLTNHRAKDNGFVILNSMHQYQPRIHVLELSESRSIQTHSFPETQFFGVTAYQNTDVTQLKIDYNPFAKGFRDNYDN
Method: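 Universal protein-binding microarray (Agilent AMADID 016060, 60-bp probes with a 35-bp variable region) incubated with 200 nM GST-fused Strongylocentrotus purpuratus Tbr T-box DNA-binding domain (residues 362-554) in PBS pH 7.5. Scored for every ungapped 8-mer (given with its reverse complement) as E-score (range -0.5 to 0.5; >0.45 counts as bound) and Z-score of median probe intensity. Two replicate arrays (datasets 1 and 2).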
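Further: protein at 200 nM in PBS on universal double-stranded arrays.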

Sequence	PBM E-score of 8-mer
CTTAGATA	-0.166 ± 0.068
ATGGCCAT	-0.2 ± 0.017
AATCGCCT	-0.0697 ± 0.07
GTTGTGAA	0.4 ± 0.015
ACGGGAAT	-0.0347 ± 0.057
CTATTGTC	0.027 ± 0.094
ACCAAGTA	0.0493 ± 0.11
TCCTCTCA	0.187 ± 0.1
GATGGAAA	0.0582 ± 0.0093
ACGGCAGG	0.221 ± 0.0079
ATTTACTA	-0.204 ± 0.046
GTATATGA	-0.0217 ± 0.0052
CCGGATAA	-0.143 ± 0.034
GGGTTCAA	-0.244 ± 0.019
ATTTTTCG	0.135 ± 0.066
CTCTCCCA	0.0994 ± 0.023
GTTGGAGA	-0.168 ± 0.033
GACGTTAA	-0.145 ± 0.1
TCAACTAA	0.0104 ± 0.06
ACGATAGG	-0.21 ± 0.072
AGAGTAAC	-0.0382 ± 0.02
GTCTGGCA	0.00596 ± 0.021
AACTTAGG	-0.241 ± 0.01
TGTTCAAA	0.00431 ± 0.014
GGGTGCGA	0.4746 ± 0.00052

Sequence	PBM E-score of 8-mer
CCATACAA	-0.143 ± 0.053
AAAAATCA	0.0134 ± 0.02
GTTCAGGA	0.00196 ± 0.097
CCGAAAAA	-0.275 ± 0.042
GAGACGAC	-0.0936 ± 0.022
CAAATTAC	0.079 ± 0.017
CTTAGGAA	-0.21 ± 0.035
ACCCGAAG	0.0813 ± 0.022
CACTTTCC	0.273 ± 0.034
GCGTTAGC	0.344 ± 0.021
TGTGTAAA	0.267 ± 0.031
ACCGTAGT	-0.0551 ± 0.041
AACAATCA	0.0053 ± 0.019
ATGAATTC	0.0409 ± 0.0061
AAACCCAA	-0.175 ± 0.011
CAATCACA	0.29 ± 0.0076
ATCATAGG	-0.141 ± 0.02
GGCGGACA	-0.0821 ± 0.027
ACTCCCCG	-0.0676 ± 0.042
AATTGCCG	0.08271 ± 0.00019
GCCAGTTA	0.0672 ± 0.012
AGTCGTAT	-0.1389 ± 0.00078
CGACCCTA	-0.159 ± 0.049
CTTAAATA	-0.125 ± 0.048
GGTGACCA	0.075 ± 0.05

Sequence	PBM E-score of 8-mer
GGCTTGGA	-0.317 ± 0.0094
CCGATGCG	-0.169 ± 0.017
CGGTACGA	-0.104 ± 0.04
ACCCATTA	0.0333 ± 0.034
GCGTATCC	-0.03 ± 0.059
CAAGTGTG	0.453 ± 0.0056
AAGGGGCT	-0.267 ± 0.059
GTGCTTGA	0.0005 ± 0.0029
CGAACACG	0.166 ± 0.011
CCCACGCG	0.222 ± 0.015
CGAAGTCG	0.112 ± 0.032
ACCATAGG	0.138 ± 0.017
GAGTTAGA	-0.155 ± 0.12
AATAAAAA	-0.103 ± 0.01
GATGGTAA	-0.0331 ± 0.078
GACAGAGA	-0.0265 ± 0.032
CGACGTCG	0.0879 ± 0.057
GATTATCA	0.0728 ± 0.12
AGTTGGCG	0.197 ± 0.04
AGGTAGCA	0.0725 ± 0.016
GGTAATAA	-0.117 ± 0.024
AGAGTCAA	-0.178 ± 0.031
AGCAATAT	-0.0267 ± 0.017
CTAATTAC	-0.00937 ± 0.0047
CGAAGCCG	0.244 ± 0.045

Sequence	PBM E-score of 8-mer
ACATGCTA	0.122 ± 0.055
CATGGGAA	-0.135 ± 0.021
ATGTACGG	-0.177 ± 0.01
CTTGTGGA	0.1724 ± 0.00061
CGCGTTTA	0.0979 ± 0.059
AAGGAGAC	-0.174 ± 0.043
AGAAGGGA	-0.25 ± 0.041
GGAGGTTA	0.0402 ± 0.089
ACGGCCGC	0.0717 ± 0.012
GGAAGGGA	-0.2472 ± 0.00063
AAACAACT	0.0242 ± 0.015
CGGTCAGC	-0.186 ± 0.18
AAATTAGC	0.186 ± 0.032
CACCTCCC	0.389 ± 0.017
GTATATCA	-0.0371 ± 0.025
GCCGAGCA	0.0371 ± 0.066
AAAGAGGA	-0.0737 ± 0.031
CATTTGCC	-0.158 ± 0.049
ATACTGTA	0.0532 ± 0.019
GACGTCTA	-0.05511 ± 0.00047
ACAACCGG	-0.215 ± 0.038
TTCTGAAA	-0.268 ± 0.0015
CGAGTACC	-0.0702 ± 0.07
AGGCGCAC	-0.00462 ± 0.11
CACTTCAA	0.213 ± 0.013

Sequence	PBM E-score of 8-mer
AATGATAC	0.0216 ± 0.048
CACTGATC	-0.0424 ± 0.017
CGCCCTTA	0.0347 ± 0.031
CCTGAAAC	-0.146 ± 0.076
CTTTACCC	-0.251 ± 0.01
CATATTCA	0.118 ± 0.022
AGGGTGAA	0.132 ± 0.073
CGGCATGA	-0.118 ± 0.025
GGAGACCA	-0.0961 ± 0.027
CTGCGTGC	-0.0397 ± 0.01
CCCTGCTC	-0.191 ± 0.063
CTCTAGGC	-0.0953 ± 0.044
CCGGACGG	-0.259 ± 0.036
ATACGTGG	-0.158 ± 0.036
GGTTTGAC	0.0212 ± 0.023
CGTAGAAG	-0.295 ± 0.028
TAAATCCA	-0.136 ± 0.008
CTTCATTC	-0.213 ± 0.0065
ATATCTGG	-0.235 ± 0.066
ACTACGAC	-0.161 ± 0.072
CTCCGCAG	-0.0482 ± 0.0072
GCATATAA	-0.204 ± 0.069
CTCGCTCA	0.0444 ± 0.056
CTGCCTTA	-0.114 ± 0.0045
ATCGGATA	-0.124 ± 0.068

Sequence	PBM E-score of 8-mer
CACATTGC	0.25 ± 0.017
CACCCTAC	0.136 ± 0.011
CTGGCGCC	0.234 ± 0.036
CGTGATCC	0.11 ± 0.02
CTGAGCTC	-0.192 ± 0.018
CGGGGAGA	-0.0892 ± 0.052
CCCTAAAG	-0.256 ± 0.0096
TACCAGGA	-0.24 ± 0.028
AACCTCAG	-0.244 ± 0.045
AAGCAAGG	-0.0863 ± 0.017
ATGTAGCA	-0.175 ± 0.017
TAAAGTCA	-0.2 ± 0.036
CAAAAGAC	-0.175 ± 0.089
ACTATATG	-0.168 ± 0.056
TTAGTGAA	0.0446 ± 0.044
AGAATCGG	-0.0586 ± 0.055
CAAGGCCC	-0.109 ± 0.046
GAGGATGC	-0.0317 ± 0.049
GATGCCCA	-0.0739 ± 0.01
CGCAAAAG	0.0879 ± 0.014
TATTGCAA	-0.18 ± 0.026
CGTACCTA	-0.144 ± 0.053
GGAAGCAC	-0.149 ± 0.046
AGGGGAAT	-0.0459 ± 0.081
CGACTCAC	0.154 ± 0.025

Sequence	PBM E-score of 8-mer
CATATCCC	-0.0752 ± 0.018
CTAGAGAA	-0.2568 ± 0.00037
CTTAGAGA	-0.116 ± 0.046
ACTAAAGG	0.0555 ± 0.022
ATTCACAA	0.299 ± 0.061
CCCCTTCC	-0.0364 ± 0.015
CGCACGCG	0.289 ± 0.0054
GAATGGGC	-0.0947 ± 0.025
CAGAGCAC	-0.222 ± 0.038
GGGGGCAC	-0.164 ± 0.034
GATCTGGC	-0.0574 ± 0.02
ATCGGTGG	0.0155 ± 0.037
ATCCGATG	-0.0721 ± 0.0035
AGGGCCCA	-0.214 ± 0.045
ACCCATCA	-0.0914 ± 0.03
AACTGGCT	-0.2 ± 0.041
CGAAGGCC	-0.0308 ± 0.0029
AGAGCGGG	-0.162 ± 0.0011
AATAAATC	-0.0519 ± 0.03
CCTAATCC	-0.2286 ± 0.0013
AAAAGGCG	0.151 ± 0.029
GATAAGGC	0.0701 ± 0.068
